Results taken from PMC4029850 (Journal of immunological methods, 2014).
Where no end group is shown, it is not given here.

Molecular target: DR1 (HLA-DRA*01:01;DRB1*01:01) (Homo sapiens, UniProt P01903+P01911, A100R/D57E/F55L/F60I/F76Y/I96L/L162R/M171V/P40L/Q125E/R42F/V115G/Y59C)
Assay: Peptide dissociation assay
Assay type: binding
Details: read-out: koff (intrinsic dissociation off-rate)

Which koff does the source give for VSKMRMATPLLMQ [CLIP] here?
The koff was 5.56e-05 s⁻¹.
